Reference: PubChem BioAssay AID2546 (National Center for Advancing Translational Sciences (NCATS), 2010)
The campaign covered roughly 310,000 compounds. About 11,000 (3.5%) were called active. The shares of active, inactive and inconclusive entries below differ from those in the screen. The call rests on the fitted dose curve; in most records, active means well fitted inhibition curve with a large enough effect; inconclusive means small, poorly fitted or top-dose-only effect, or effect the other way; inactive means flat fitted curve, though single readings scatter. No potency is given beside an inconclusive call; the fits are too rough.

Experiment: VP16 counterscreen qHTS for inhibitors of ROR gamma transcriptional activity;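 further: Gal4-VP16 expression switched on by copper sulfate through the metallothionein promoter; nearly all actives have a fitted effect of over 50% in size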
Details: Drosophila S2 Gal4-VP16 UAS-luciferase, luminescence, 20 h; series mostly up to 53.6 µM; activity, negative = inhibition: at the top concentration
On the % scale 0 is the no-effect control and ±100 the full control effect; potency means the concentration at half of the fitted maximal effect; tags describe the fitted curve by direction and shape.

| SMILES | Potency | activity, negative = inhibition |
| --- | --- | --- |
| Nc1nonc1C(=O)N/N=C/c1ccc([N+](=O)[O-])o1 | inconclusive [inhibitor, single point] | – |
| COP(=O)(OC)C(NC(=O)c1ccc(C)cc1)C(Cl)(Cl)Cl (centres undefined) | inconclusive [activator, single point] | – |
| Cc1ccccc1-c1cncnc1NCCc1cnc[nH]1 | – | inactive: -7.37% |
| O=c1[nH]c(=O)n(-c2ccccc2)c(O)c1/C=C1/C(c2ccccc2)=Nc2ccccc21 | inconclusive [activator, single point] | – |
| CC1=CC2/C=C(\C)CCC(O)C(O)/C=C/C(=O)C23C(=O)NC(CC(C)C)C3C1C (centres undefined) | active: 7.08 µM | – |
| CCOC(=O)[C@]1(C#N)[C@@H]2C=CC(C(C)=O)=CN2[C@@H](C(N)=O)[C@@H]1c1ccsc1 | active: 20 µM | – |
| CN(C(=O)Cc1ccc(Cl)c(Cl)c1)[C@H](CN1CCCC1)c1cccc(N=C=S)c1 | inconclusive [inhibitor, partial curve, poor fit] | – |
| O=C1/C(=C/c2ccc([N+](=O)[O-])cc2)N2CCC1CC2 | inconclusive [activator, single point] | – |
| COC[C@H]1OC(=O)c2coc3c2[C@@]1(C)C1=C(C3=O)C2CCC(=O)[C@@]2(C)C[C@H]1OC(C)=O (some centres undefined) | inconclusive [inhibitor, partial curve, poor fit] | – |
| CC(=NCCC(c1ccccc1)c1ccccc1)c1c(O)n(C)c(=O)n(C)c1=O | – | inactive: -4.06% |
| C[C@@]12CC[C@H](O)C[C@@H]1CC[C@H]1[C@H]2CC[C@@]2(C)[C@@H](C3=CC(=O)OC3)CC[C@]12O | – | inactive: -3.2% [at 17 µM] |
| N#CSCSC#N | active: 0.447 µM | – |
| C#CCN1C(=O)C2(C(C#N)=C(N)OC(C)=C2C(=O)OCc2ccccc2)c2ccccc21 (centres undefined) | inconclusive [inhibitor, single point] | – |
| NC(=O)C1(N2CCCCC2)CCN(Cc2ccccc2)CC1 | inconclusive [activator, partial curve] | – |
| CCOC(=O)c1sc2ccccc2c1NC(=O)c1coc2ccccc2c1=O | inconclusive [inhibitor, single point] | – |
| O=c1[nH]c(=O)n(Cc2ccco2)c(O)c1C=NCCN1CCNCC1 | – | inactive: -5.85% |
| NCCc1c[nH]c2ccc(F)cc12 | – | inactive: 3.37% |
| COc1ccc(C(C)=O)cc1CC(C(=O)c1ccc(F)cc1)N(C)C (centres undefined) | inconclusive [inhibitor, single point] | – |
| Cc1nc2ccccn2c1P(=S)(N1CCCCC1)N1CCCCC1 | active: 11.2 µM | – |
| Cc1cc(C)c(C(=O)CN2CCOCC2)c(C)c1 | inconclusive [inhibitor, single point] | – |
| c1ccc2c3c([nH]c2c1)C1(CCNCC1)NCC3 | – | inactive: -0.917% |
| CCCCOCC1CO1 (centres undefined) | – | inactive: 6.99% |

| SMILES | Potency | activity, negative = inhibition |
| --- | --- | --- |
| COC(=O)C1(O)CC2OC1(C)n1c3ccccc3c3c4c(c5c6ccccc6n2c5c31)C(=O)NC4 (centres undefined) | inconclusive [inhibitor, partial curve] | – |
| CC(C)(C)NS(=O)(=O)c1ccc(OCC(=O)N2CCN(Cc3ccccc3)CC2)cc1 | inconclusive [inhibitor, single point] | – |
| CC(C)[C@@]1(NC(=O)[C@@H]2C[C@@H]3c4cccc5[nH]cc(c45)C[C@H]3N(C)C2)O[C@@]2(O)[C@@H]3CCCN3C(=O)[C@H](Cc3ccccc3)N2C1=O | inconclusive [inhibitor, single point] | – |
| Cn1nnc2cc(NC(=O)Nc3cccc(Cl)c3)ccc21 | inconclusive [activator, full curve, poor fit] | – |
| Cc1ncc2n1-c1ccc(Cl)cc1C(c1ccccc1F)=NC2O (centres undefined) | – | inactive: 6.89% |
| CCOc1cc(CNC(C)C(O)c2ccccc2)cc(Cl)c1OCC (centres undefined) | inconclusive [inhibitor, single point] | – |
| O=c1[nH]c(=S)[nH]c(O)c1N=Nc1ccc2c(c1)OCCO2 | inconclusive [inhibitor, partial curve] | – |
| O=C(O)C(Cl)Br (centres undefined) | – | inactive: 1.33% |
| C[C@@H]1C[C@H](C)C[C@H](C)[C@@H](O)CC(=O)O[C@H]([C@H]2CCC[C@H]2C(=O)O)C/C=C/C=C(/C#N)[C@H](O)[C@@H](C)C1 | inconclusive [inhibitor, full curve, poor fit] | – |
| CC(C)(O)C(=O)Nc1ccc([N+](=O)[O-])c(C(F)(F)F)c1 | inconclusive [inhibitor, single point] | – |
| CCCCCn1c(=O)c(C(=O)Nc2ncccc2C)c(O)c2ccccc21 | active: 8.91 µM | – |
| Clc1ccc(CCNCc2ccncc2)c(Cl)c1 | – | inactive: -3.91% |
| O=c1c2ccccc2nc(/C=C/c2ccco2)n1-c1ccccc1O | inconclusive [inhibitor, single point] | – |
| O=C(c1cc2c(s1)-c1ccccc1OC2)N1CCC2(CC1)OCCO2 | inconclusive [activator, single point] | – |
| CC(=O)N1CCN(c2ccc(OCC3CO[C@@](Cn4ccnc4)(c4ccc(Cl)cc4Cl)O3)cc2)CC1 (some centres undefined) | inconclusive [inhibitor, single point] | – |
| CCN(CC)CCCC(C)N=C(c1ccccc1)c1c(O)n(C)c(=O)n(C)c1=O (centres undefined) | – | inactive: -0.797% |
| CC1(C)C(O)CC(=O)[C@]2(C)C1CC(=O)[C@]1(C)C2CC[C@@]2(C)C(c3ccoc3)OC(=O)C3O[C@@]321 (some centres undefined) | – | inactive: -20.4% |
| CC(C)Nc1ccc(Nc2ccccc2)cc1 | inconclusive [inhibitor, single point] | – |
| O=P1(Oc2ccccc2)CC=CC(COC(c2ccccc2)(c2ccccc2)c2ccccc2)O1 (centres undefined) | – | inactive: -3.24% |
| O=C(CC1CCCCC1)N1CCC(c2nc(-c3ccc(S(=O)(=O)N4CCCC4)cc3)no2)CC1 | inconclusive [inhibitor, single point] | – |
| O[C@H]1[C@H]2[C@H](O)CCCN2C[C@H]1O | – | inactive: -7.07% |
| CCCCCC(O)C1C(=O)OC(C)C(O)\C=C/C=C\C=C/C=C\C=C(\C)C(O)C(O)C(O)CC(O)CC(O)CC(O)CC(O)CC1O (centres undefined) | – | inactive: -7.02% |
